# Measurements published in PubChem BioAssay AID624418 (National Center for Advancing Translational Sciences (NCATS), 2012).
# Out of some 410,000 compounds screened, about 530 (0.13%) were called active. The shares of active, inactive and inconclusive entries below differ from those in the screen. Calls follow the shape of the dose curve; as a rule, active = well fitted inhibition curve with a large enough effect; inconclusive = small, poorly fitted or top-dose-only effect, or another doubt; inactive = no such curve, though single readings can be large or run the other way. A potency beside an inconclusive call is a rough fit, not a confirmed value.
# Assay: qHTS of GLP-1 Receptor Inverse Agonists: Cytotox Screen
# Conditions: HEK293 cAMP-luciferase reporter cells, luminescence, 24 h; activity change, negative = inhibition: at 38.3 µM (top of the series) unless noted
# Summary of the method: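 Here, cytotoxicity is scored as loss of luminescence. The MLSMR collection was tested on cells seeded in medium containing 10% Nu serum, with a 24 hr compound exposure preceded by 12 hours of culture.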
# % is scaled to controls: 0 for no effect and ±100 for the full control effect; potency is read from the fitted curve at half-maximal effect.
SMILES,Potency,"activity change, negative = inhibition"
Cn1cc([N+](=O)[O-])c(C(=O)Nc2ccc(-c3nc4ccccc4[nH]3)cc2)n1,inactive,
O=C(CCCSc1ccccc1)Nc1nc(-c2ccccn2)cs1,"inconclusive: 14.1 µM [inhibitor, partial curve, poor fit]",
COc1cc(-c2nccc3cc4c(cc23)OCO4)cc(OC)c1OC,"inconclusive: 1.58 µM [inhibitor, full curve, poor fit]",
CCOC(=O)C(C(=O)OCC)c1cc(Br)c2noc3c2c1C(=O)c1ccccc1-3,"inconclusive: 3.16 µM [inhibitor, full curve, poor fit]",
[O-]/C(=C(\C(=S)Nc1cccc2ccccc12)[n+]1ccccc1)c1ccc(Cl)s1,"inconclusive: 12.6 µM [inhibitor, single point]",
COc1ccc(/C=C2/SC(=S)N(CCCC(=O)Nc3ccc(O)cc3)C2=O)cc1,"inconclusive: 10 µM [inhibitor, partial curve, poor fit]",
O=[N+]([O-])c1ccc(/C=N/Nc2ncccc2[N+](=O)[O-])s1,active: 1.12 µM,
COc1cccc(NC(=O)Nc2nc(-c3ccc(OC)c(OC)c3)cs2)c1,"inconclusive: 7.94 µM [inhibitor, partial curve, poor fit]",
COc1ccc(C(C(=O)NC(C)(C)C)N(Cc2cccs2)C(=O)CCC(=O)Nc2cc(C)on2)cc1 (centres undefined),"inconclusive: 31.6 µM [inhibitor, single point]",
O=C(NC(=S)Nc1cccc(Cl)c1N1CCCCC1)c1cccs1,"inconclusive: 11.2 µM [inhibitor, partial curve, poor fit]",
CC1CCCN(CC(=O)Nc2ccc(S(=O)(=O)N3C(C)CCCC3C)cc2)C1 (centres undefined),inactive,
CCN1CCN(c2nc(Nc3cccc(F)c3)nc(N)c2[N+](=O)[O-])CC1,"inconclusive: 28.2 µM [inhibitor, single point]",
CC(C)Oc1ccc(C(=O)Nc2nnc(C3=COCCO3)o2)cc1,"inconclusive: 17.8 µM [inhibitor, single point]",
N/N=C1\CCCc2c1[nH]c1ccc([N+](=O)[O-])cc21,"inconclusive: 28.2 µM [inhibitor, single point]",
O=C(O)/C(=C\c1ccc(Cl)c([N+](=O)[O-])c1)c1ccc(S(=O)(=O)N2CCCC2)s1,inactive,
COc1ccc(/C(N)=N/OC(=O)N2CCOCC2)cc1,"inconclusive: 10 µM [inhibitor, partial curve, poor fit]",
Cc1ccc(S(=O)(=O)N2CCCCC2CCNC(=O)C(=O)NCCc2ccco2)cc1 (centres undefined),"inconclusive: 11.2 µM [inhibitor, single point]",
CC(C)C[C@@H](CNCC(=O)[C@H](CC(=O)O)NC(=O)c1[nH]cnc1C(=O)N[C@H](CN)CC(C)C)NC(=O)c1nc[nH]c1C(=O)N[C@@H](Cc1ccccc1)C(=O)O,inactive,
O=C(c1ccc([N+](=O)[O-])s1)N1CCN(c2ccccc2)CC1,inactive,
COCCNc1ncnc2c1cnn2Cc1ccc(Cl)cc1,"inconclusive: 15.8 µM [inhibitor, single point]",
Cc1nnc(-c2cccc(Br)c2)c2cn(-c3cccc(Br)c3)nc12,"inconclusive: 28.2 µM [inhibitor, single point]",
COc1ccccc1OCCn1cc(/C=N/NC(N)=S)c2ccccc21,"inconclusive: 7.08 µM [inhibitor, partial curve, poor fit]",

SMILES,Potency,"activity change, negative = inhibition"
Cc1ccc2nc(NC(=S)NC(=O)c3ccco3)sc2c1,"inconclusive: 3.16 µM [inhibitor, full curve, poor fit]",
COc1ccc(-c2nnc(C3CCN(S(=O)(=O)c4ccccc4)CC3)o2)cc1,"inconclusive: 12.6 µM [inhibitor, single point]",
Cc1nnc(SCC(=O)N(C)c2c(N)n(Cc3ccccc3)c(=O)[nH]c2=O)n1Cc1ccccc1,inactive,
O=C(NCCC1CCCCN1S(=O)(=O)c1ccc(Cl)cc1)C(=O)NCc1ccco1 (centres undefined),"inconclusive: 11.2 µM [inhibitor, partial curve, poor fit]",
CCOc1ccc(-c2n[nH]c(C)c2-c2ccccc2OC)c(O)c1,"inconclusive: 7.94 µM [inhibitor, partial curve, poor fit]",
COc1ccc(CN(C)CC(O)COc2ccc(C(=O)c3ccccc3)cc2)c(OC)c1OC (centres undefined),"inconclusive: 28.2 µM [inhibitor, single point]",
CC1(C)C(c2ccco2)=[N+]([O-])C2(CCCCC2=O)N1O (centres undefined),inactive,
C/C(=N\NC(=O)c1ccccc1F)c1ccccn1,"inconclusive: 2.82 µM [inhibitor, full curve, poor fit]",
CCCn1c(N2CCN(Cc3ccc(Cl)cc3)CC2)nc2ccccc21,"inconclusive: 28.2 µM [inhibitor, single point]",
CCOC(=O)CNC(=S)N(Cc1ccccc1F)C1CCCCC1,,inactive: -0.818% [at 7.66 µM]
COc1ccc2c(c1)CCc1c(C(=O)NCCN3CCOCC3)noc1-2,inactive,
COc1ccc(-c2csc(NC(C)c3nc4cc(Cl)c(Cl)cc4n3CCCO)n2)cc1 (centres undefined),"inconclusive: 28.2 µM [inhibitor, single point]",
CN(C)c1ccc(/C=N/NC(=S)NCc2ccccc2)cc1,"inconclusive: 5.01 µM [inhibitor, full curve, poor fit]",
NCCNc1ccc([N+](=O)[O-])cc1,"inconclusive: 11.2 µM [inhibitor, partial curve, poor fit]",
O=C1C(Cc2ccccc2)Nc2ncnc(N3CCOCC3)c2N1Cc1ccc(Cl)cc1 (centres undefined),inactive,
CC(=O)Nc1ccc(NC(=O)CSc2nnc(C)c(=O)[nH]2)cc1,"inconclusive: 28.2 µM [inhibitor, single point]",
COc1ccc(NC(=O)C2CCN(S(=O)(=O)c3cccc4cccnc34)CC2)cc1,"inconclusive: 28.2 µM [inhibitor, single point]",
COCCn1ccc2c(OCC(=O)Nc3cc(OC)ccc3OC)cccc2c1=O,"inconclusive: 22.4 µM [inhibitor, single point]",
Cc1noc(C)c1NC(=O)N(C)C[C@H]1Oc2c(NS(=O)(=O)c3cn(C)cn3)cccc2C(=O)N([C@H](C)CO)C[C@@H]1C,"inconclusive: 3.16 µM [inhibitor, full curve, poor fit]",
COc1ccc(NC(=S)NC(=O)c2ccccc2)cn1,"inconclusive: 28.2 µM [inhibitor, single point]",
C=CCN1C(=O)NC(c2ccc(OC)cc2)(C(F)(F)F)S/C1=C(\C#N)c1nnc(N2CCOCC2)n1-c1ccccc1 (centres undefined),active: 10 µM,
S=C(NCCCc1ccccc1)Nc1ccccc1Cl,"inconclusive: 11.2 µM [inhibitor, single point]",

SMILES,Potency,"activity change, negative = inhibition"
O=C1CC2(CCCCC2)Oc2ccc(Cl)cc21,"inconclusive: 28.2 µM [inhibitor, single point]",
COc1ccccc1N1CCN(C(=O)c2cnn(C(C)(C)C)c2C2CCN(C(=O)OC(C)(C)C)CC2)CC1,inactive,
CC(C)N(Cc1c(O)ccc2c(=O)c(-c3ccc(Cl)cc3)coc12)C(C)C,"inconclusive: 28.2 µM [inhibitor, single point]",
Cn1nc([N+](=O)[O-])c(C(C#N)c2ccccn2)c(Cl)c1=O (centres undefined),"inconclusive: 28.2 µM [inhibitor, single point]",
CCCc1nn2c(=O)cc(CSCC(=O)Nc3nnc(C(C)C)s3)nc2s1,"inconclusive: 28.2 µM [inhibitor, single point]",
Cc1cccc(Cn2c(NCCO)nc3c2c(=O)n(C)c(=O)n3C)c1,"inconclusive: 28.2 µM [inhibitor, single point]",
Fc1ccccc1NC(=S)NCc1ccc(Cl)cc1,"inconclusive: 22.4 µM [inhibitor, single point]",
CCOc1ccc(-n2nc3c(=O)[nH]nc(C)c3c2C)cc1,"inconclusive: 2.51 µM [inhibitor, partial curve, poor fit]",
CC1Cc2cc(S(=O)(=O)CCC(=O)N3CCN(c4ccccc4)CC3)ccc2N1C(=O)C1CC1 (centres undefined),"inconclusive: 28.2 µM [inhibitor, single point]",
CCOC(=O)/C(=C\c1ccc(OC(F)F)cc1)C1=Nn2c(nnc2-c2ccc(Cl)cc2)SC1,inactive,
CCC(O)C1CCN(Cc2cn(Cc3ccccc3)nc2-c2cc3ccccc3o2)CC1 (centres undefined),"inconclusive: 28.2 µM [inhibitor, single point]",
Cc1ccc2c(Cl)c(C)c(N3CCCC3)nc2n1,"inconclusive: 22.4 µM [inhibitor, single point]",
COc1ccc(NC(=O)CN(C)C(=O)c2cc(-c3ccccc3)nc3ccccc23)cc1,"inconclusive: 28.2 µM [inhibitor, single point]",
OC1(c2cccc(F)c2)CCN(Cc2ccncc2)CC1,inactive,
COc1ccc(C(O)c2nc(-c3cccc(NC(C)=O)c3)cs2)cc1 (centres undefined),inactive,
CCOc1ccc(/C=C2\SC(=S)NC2=O)cc1OC,"inconclusive: 12.6 µM [inhibitor, single point]",
CCOc1ccc(Cn2c(CNS(=O)(=O)c3cccs3)nc3cccnc32)cc1,inactive,
CCC(=O)OCCNc1cc(Sc2nc3ccccc3[nH]2)c2nonc2c1[N+](=O)[O-],"inconclusive: 11.2 µM [inhibitor, single point]",
CSc1nnc(NC(=O)c2nc(S(=O)(=O)Cc3ccc(C)cc3)ncc2Cl)s1,"inconclusive: 28.2 µM [inhibitor, single point]",
CCN(CC)CC(C)(C)C(=O)/C=C/c1ccc(/C=C/C(=O)C(C)(C)CN(CC)CC)cc1,"inconclusive: 1.26 µM [inhibitor, full curve, poor fit]",
